# Results: the supplement of paper PMC12632987
# Whole data set: some 2,300 sequences, median “median log2 fold change of GCK-ALFA target abundance (FLAG IP / Myc IP barcode read proportion)” near 0.095, cut for the lowest 2% near -0.47. The list shows a part of the results.
# B1: LC3A_127_201 (protein)
# chain: EKRELLLKAEELAEKALKALQEIPKEGEKAIKKAIKLAEELLELLEKIPELKEAAEDAKQLLKQLKELPKLSKAEQEEAIEHMEMIAEGILIDIESELLK
# B2: LC3A_free_46_2342 (protein)
# chain: MTLEIDVDILADTKEKAEKAVEELVKLFKELAKEYNAELEIEVEIEKLEDGSYYAHIRAVFKGVTKEQAQEIEDKVVDKVEEISEKYGVAAIVSFEIIET
# B3: LC3A_28_797 (protein)
# chain: SAVDEELARARAEARAALARGEEAVLTVRVTGDTTVADAERIAAALREIVEEAASLPRLSIVIDLSGGVSQEVIDILADAGEELEERYPNVNVILALDEE
# B4: LC3A_28_920 (protein)
# chain: MTAEEIIAEIRKIAKEAIEKGEDAFIEVEIDSSHTAEEAAAIMDEVEREVAKLSAAGLKVDIVVDLDDVSQEVLDTVADRADEIEEKYPNVNVVIALDEE
# B5: LC3A_28_1211 (protein)
# chain: SAADAAIAAFRAQVDAAIAAGEPQTIVVRIGGSITVEDAKRIMAAVREEVARAAGLPGLSIVIDLGGGVSQEVIDVVGEEAERIEKEFPNVTVIIALEER
# B6: LC3A_free_46_2395 (protein)
# chain: ITGYIDILLEGATEEQAKEIAKKAEEKIKEEAAKKGVNVEIKVKIEKDEEGNIFINIEVKMDTDDEQVALDILSETEDEALKLAKELGIKASSIISVEKD
# B7: LC3A_45_1930 (protein)
# chain: MYKATVDLLVPKELADEVYEKIKEELEKLEAEYGDDLEVDYETLEASYEASKDEEEVYLEVNIYAPNKQLALDAADKLVDSIEEFTNGKVASMISIEELP
# B8: LC3A_free_8_2532 (protein)
# chain: STQDFVNEAVELLDELEKKVTEKAKELGISELDILDLELLIGSAIIDVIEMQDEPKEKILKEVEEDLKEIEKRAKEISEELAEEVKKLSEEILKKLKEKL
# B9: LC3A_28_1151 (protein)
# chain: SAMVEKAKAQIEKDAEKDKNEEEIYLNVTFEKGMTLEEAKEVMDYVEEVVEKNKDKKKIYIVVDFTEPLSQEVIDYILEKSEEIEEKFPNVSVIIALHED
# B10: LC3A_3_1710 (protein)
# chain: GEELLKEAEKILKEQGLSEETKEAVLAALKALLEKGYEEAAKTLIELLKEAKDLSDETILDFALDVKEYVETEDVSEEEAIEKIKEEYEIAKNDEEIEEL
# B11: LC3A_3_1584 (protein)
# chain: LEEEEAALLEELAAAGHSPETLAAVRELLEALRERGFEEAARHVIELFRENVDLPDDLLLDIALELLRALEEEDLSEEELIELAEELFRTARNEKEIEEA
# B12: LC3A_28_1192 (protein)
# chain: SPADETIAAIKAQAAKALEEGEGAVIEVNISSELTKEDVERIAATIKAEAEKLKDLPSVSIVINVDAGVPQENIDLLAETGDEIEAKYPNITVIIALDED
# B13: LC3A_free_46_2357 (protein)
# chain: YKAEIDIDLLHDDEEVLKAAVEEIEKKAKEIAKKYGLKIKIEKSFEKLPDGSYYAEIKIILEGENKEDVEKAVNELINEIEKISEKYDVASIISYEIEES
# B14: LC3A_3_1449 (protein)
# chain: GEELIEEAKKILKEQGRSEETIKAAEELLKALKEKGYEKAMETFVEELKKLKDVSSEIILAMFEDIKYEVENKDLSEEEVVEIIKSEAAAAISENEIIEL
# B15: LC3A_102_159 (protein)
# chain: DIEKKIEEIIKKAVKKMEEFLKKDKSLTEEEKEEILKITREALEALAEILLSEAQHGFVDLVAEDKLLEAKEKLKEYPKEVQEEAEKILKEAEEEIKKLL
# B16: LC3A_36_1338 (protein)
# chain: MEVIVASSKREEVEKATEEANKKGADLKLIFTKETTVEEIEENLELILEKAKNISSLIIDIDADTEEELLEKIKVASEMADKLEKEKGVTVIISYDVDEK
# B17: LC3A_3_1494 (protein)
# chain: MPELLARLRAELEAAGASPEQIARVLAAARELLARGYEATVERAIALIRRHADLSPRDLVAAFLTTADLALERGLSEAEAVAHAERVFADVAEIEALDEN
# B18: LC3A_28_1064 (protein)
# chain: MKVEEEIKKALEEAEEAKKRGEEALITLKIDDSDTEEDVEKKLKTMEEIAELTKDLPSVTILVDVDSSRKEEVTKKVSEVGDRLEKKYPNVTVIIALSEE
# B19: LC3A_free_39_2212 (protein)
# chain: SEEELDEIIKEIAKESGLDYEEIKEKLKEIQEVAGLSLEQMKKLAEAILKAVKEGADAKEILERVLKLAKELKAAGKSPEEIAKALIEEVEDYRNLIPLD
# Target: MAP1LC3A, Q9H492
# Experiment: median log2 fold change of GCK-ALFA target abundance (FLAG IP / Myc IP barcode read proportion) (log2 ratio); each designed protein is fused to an ALFA-tag nanobody in HEK293 cells to bring the named protein to FLAG-tagged glucokinase (GCK); Myc marks an untargeted standard; higher = target protein stabilised (more abundant)
# Conditions: target protein: 3xFLAG-MCP-GCK-ALFA reporter; HEK293 landing pad (RPLP)
# Outline: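 Sequencing of reverse-transcribed, amplified circular RNA barcodes from anti-FLAG and anti-Myc immunoprecipitates provided the readout for an ALFA-nanobody-fused binder library recombined into HEK293 landing-pad cells. Those cells were induced with 2 μg mL^−1 doxycycline, transfected with a plasmid expressing a FLAG-tagged target and a Myc-tagged standard, and lysed after 48 h. Target abundance is the per-binder median log2 ratio of FLAG to Myc barcode read proportions. Only barcodes at a proportion of ≥10^−7 in both replicates and binders with ≥3 barcodes per replicate were kept, with a 10^−6 pseudocount added before the two replicates were pooled.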
row,Binder,median log2 fold change
1,B1,-0.109
2,B2,0.16
3,B3,0.0691
4,B4,-0.138
5,B5,0.235
6,B6,-0.0758
7,B7,-0.221
8,B8,-0.056
9,B9,-0.28
10,B10,0.213
11,B11,0.141
12,B12,0.139
13,B13,0.228
14,B14,0.0471
15,B15,0.104
16,B16,0.123
17,B17,0.22
18,B18,-0.0346
19,B19,0.203
